Laboratory results reported in the supplement of paper PMC12067230.
This is a noisy data set.

assay: amyloid nucleation score relative to library mode (yeast Sup35 reporter selection) (log enrichment difference); higher = more amyloid nucleation; sequences are the first 22 residues of the Bri2 peptide extended by up to 12 random residues; settings: random library (experiment): 1;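 active = nucleation score significantly above 0 at FDR 0.05; inactive = not significantly above 0 or absent from output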
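Also: [psi-pin-] Saccharomyces cerevisiae expressing SupN fusions, induced by 100 µM Cu2SO4, selected 7 d at 30 °C without adenine and uracil, scored by deep sequencing of output versus input.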

Sequence	amyloid nucleation score
EASNCFAIRHFENKFAVETLICNGRSSQELALTR	inactive
EASNCFAIRHFENKFAVETLICVEGMVTRVVVTE	inactive
EASNCFAIRHFENKFAVETLICTFIGLRNWVDCS	inactive
EASNCFAIRHFENKFAVETLICFVNWCSEQVWRR	inactive
EASNCFAIRHFENKFAVETLICYTGVCERRGVTG	1.5
EASNCFAIRHFENKFAVETLICMI	6.58
EASNCFAIRHFENKFAVETLICASGAVLPGALRA	5.02
EASNCFAIRHFENKFAVETLICVRARLSTACGLV	inactive
EASNCFAIRHFENKFAVETLICPSGLRDRFCSFK	inactive
EASNCFAIRHFENKFAVETLICLPSAL	inactive
EASNCFAIRHFENKFAVETLICWCHVVL	inactive
EASNCFAIRHFENKFAVETLICQEPALHVQAPVR	inactive
EASNCFAIRHFENKFAVETLICWYCLKCFAHCVC	inactive
EASNCFAIRHFENKFAVETLICFV	2.66
EASNCFAIRHFENKFAVETLICVRSLTILWFPLT	inactive
EASNCFAIRHFENKFAVETLICGCALRGFTGGYV	4.52
EASNCFAIRHFENKFAVETLICGGVESRRGGDVG	inactive
EASNCFAIRHFENKFAVETLICWRTDA	0.281
EASNCFAIRHFENKFAVETLICEYAQNFMPWSRV	inactive
EASNCFAIRHFENKFAVETLICGAAPTPRHSSGE	inactive
EASNCFAIRHFENKFAVETLICICGGL	7.22
EASNCFAIRHFENKFAVETLICPIFGAYWCTNWA	7.87
EASNCFAIRHFENKFAVETLICAAALGGEWVRER	2.95
EASNCFAIRHFENKFAVETLICGLDQSGKVIAQS	inactive
EASNCFAIRHFENKFAVETLICPGELSLQQRGAV	inactive

same assay, conditions: random library (experiment): 2

Sequence	amyloid nucleation score
EASNCFAIRHFENKFAVETLICVEELMKGVRVNN	inactive
EASNCFAIRHFENKFAVETLICILSFTRHVTAGY	inactive
EASNCFAIRHFENKFAVETLICGVIKIVTYIGDQ	inactive
EASNCFAIRHFENKFAVETLICNNLPDKCRTRRE	1.9
EASNCFAIRHFENKFAVETLICKICSTGENWKRG	2.61
EASNCFAIRHFENKFAVETLICRLSVFTDMRWSD	inactive
EASNCFAIRHFENKFAVETLICFCPWGSVRMGRG	8.88
EASNCFAIRHFENKFAVETLICHYSWIGTFSWCG	inactive
EASNCFAIRHFENKFAVETLICWTQFSSCRSALV	1.08
EASNCFAIRHFENKFAVETLICRVPNLYNCCSWG	inactive
EASNCFAIRHFENKFAVETLICMFRTPSLHLLFS	inactive
EASNCFAIRHFENKFAVETLICMTLNSTISLLVG	0.462

same assay, conditions: random library (experiment): 3

Sequence	amyloid nucleation score
EASNCFAIRHFENKFAVETLICTRNGQDTKVRML	inactive
EASNCFAIRHFENKFAVETLICLDGEETGHLVAV	inactive
EASNCFAIRHFENKFAVETLICALY	inactive
EASNCFAIRHFENKFAVETLICREQSSVMGWSDE	0.711
EASNCFAIRHFENKFAVETLICQRSWKVRLAHSC	0.104
EASNCFAIRHFENKFAVETLICPVVSGHAYERAG	inactive
EASNCFAIRHFENKFAVETLICYVSRFVYGHTVE	inactive
EASNCFAIRHFENKFAVETLICVSWPVTSGLKDF	inactive
EASNCFAIRHFENKFAVETLICKAKVRRLGYRDM	inactive
EASNCFAIRHFENKFAVETLICCWCVSSSVVGVQ	9.71
